Measurements taken from the supplement of paper PMC8728848.
Some of the results follow.

Experiments:
Experiment in all cases: glycan array binding signal (z-score within array); higher = stronger binding
Conditions in all cases: glycan notation: IUPAC condensed, linker removed
Fuc(a1-2)Gal6S(b1-4)Glc = target: Fuc(a1-2)Gal6S(b1-4)Glc
How it was run: (§1)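 The binding signal is a Z-score computed within each array and averaged over linkers. Arrays of the same protein sequence at different concentrations or buffers were also averaged together. Data originate from 3228 arrays in the Consortium for Functional Glycomics database, kept only where the protein sequence was available.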

[1] = target: Fuc(a1-2)Gal6S(b1-4)Glc6S
How it was run: as §1

[2] = target: Fuc(a1-2)Gal6S(b1-4)GlcNAc
How it was run: as §1

Fuc(a1-2)[Gal(a1-3)]Gal = target: Fuc(a1-2)[Gal(a1-3)]Gal
How it was run: as §1

[3] = target: Fuc(a1-2)[Gal(a1-3)]Gal(b1-3)GalNAc
How it was run: as §1

[4] = target: Fuc(a1-2)[Gal(a1-3)]Gal(b1-3)GlcNAc
How it was run: as §1

[5] = target: Fuc(a1-2)[Gal(a1-3)]Gal(b1-3)GlcNAc(b1-2)Man(a1-3)[Fuc(a1-2)[Gal(a1-3)]Gal(b1-3)GlcNAc(b1-2)Man(a1-6)]Man(b1-4)GlcNAc(b1-4)GlcNAc
How it was run: as §1

[6] = target: Fuc(a1-2)[Gal(a1-3)]Gal(b1-3)GlcNAc(b1-2)Man(a1-3)[Fuc(a1-2)[Gal(a1-3)]Gal(b1-3)GlcNAc(b1-2)Man(a1-6)]Man(b1-4)GlcNAc(b1-4)[Fuc(a1-6)]GlcNAc
How it was run: as §1

[7] = target: Fuc(a1-2)[Gal(a1-3)]Gal(b1-3)GlcNAc(b1-3)GalNAc
How it was run: as §1

[8] = target: Fuc(a1-2)[Gal(a1-3)]Gal(b1-4)Glc
How it was run: as §1

[9] = target: Fuc(a1-2)[Gal(a1-3)]Gal(b1-4)GlcNAc
How it was run: as §1

[10] = target: Fuc(a1-2)[Gal(a1-3)]Gal(b1-4)GlcNAc(b1-2)Man(a1-3)[Fuc(a1-2)[Gal(a1-3)]Gal(b1-4)GlcNAc(b1-2)Man(a1-6)]Man(b1-4)GlcNAc(b1-4)GlcNAc
How it was run: as §1

[11] = target: Fuc(a1-2)[Gal(a1-3)]Gal(b1-4)GlcNAc(b1-2)Man(a1-3)[Fuc(a1-2)[Gal(a1-3)]Gal(b1-4)GlcNAc(b1-2)Man(a1-6)]Man(b1-4)GlcNAc(b1-4)[Fuc(a1-6)]GlcNAc
How it was run: as §1

[12] = target: Fuc(a1-2)[Gal(a1-3)]Gal(b1-4)GlcNAc(b1-3)GalNAc
How it was run: as §1

[13] = target: Fuc(a1-2)[Gal(a1-3)]Gal(b1-4)GlcNAc(b1-6)GalNAc
How it was run: as §1

[14] = target: Fuc(a1-2)[Gal(a1-3)]Gal(b1-4)[Fuc(a1-3)]Glc
How it was run: as §1

[15] = target: Fuc(a1-2)[Gal(a1-3)]Gal(b1-4)[Fuc(a1-3)]GlcNAc
How it was run: as §1

[16] = target: Fuc(a1-2)[Gal(a1-3)]Gal(b1-4)[Fuc(a1-3)]GlcNAc(b1-3)GalNAc
How it was run: as §1

[17] = target: Fuc(a1-2)[Gal(a1-4)]Gal(b1-4)GlcNAc
How it was run: as §1

[18] = target: Fuc(a1-2)[GalNAc(a1-3)]Gal
How it was run: as §1

[19] = target: Fuc(a1-2)[GalNAc(a1-3)]Gal(b1-3)GalNAc(a1-3)[Fuc(a1-2)]Gal(b1-4)GlcNAc
How it was run: as §1

[20] = target: Fuc(a1-2)[GalNAc(a1-3)]Gal(b1-3)GlcNAc
How it was run: as §1

B1: PRKCE (Homo sapiens), Q02156 (protein)
chain: MVVFNGLLKIKICEAVSLKPTAWSLRHAVGPRPQTFLLDPYIALNVDDSRIGQTATKQKTNSPAWHDEFVTDVCNGRKIELAVFHDAPIGYDDFVANCTIQFEELLQNGSRHFEDWIDLEPEGRVYVIIDLSGSSGEAPKDNEERVFRERMRPRKRQGAVRRRVHQVNGHKFMATYLRQPTYCSHCRDFIWGVIGKQGYQCQVCTCVVHKRCHELIITKCAGLKKQETPDQVGSQRFSVNMPHKFGIHNYKVPTFCDHCGSLLWGLLRQGLQCKVCKMNVHRRCETNVAPNCGVDARGIAKVLADLGVTPDKITNSGQRRKKLIAGAESPQPASGSSPSEEDRSKSAPTSPCDQEIKELENNIRKALSFDNRGEEHRAASSPDGQLMSPGENGEVRQGQAKRLGLDEFNFIKVLGKGSFGKVMLAELKGKDEVYAVKVLKKDVILQDDDVDCTMTEKRILALARKHPYLTQLYCCFQTKDRLFFVMEYVNGGDLMFQIQRSRKFDEPRSRFYAAEVTSALMFLHQHGVIYRDLKLDNILLDAEGHCKLADFGMCKEGILNGVTTTTFCGTPDYIAPEILQELEYGPSVDWWALGVLMYEMMAGQPPFEADNEDDLFESILHDDVLYPVWLSKEAVSILKAFMTKNPHKRLGCVASQNGEDAIKQHPFFKEIDWVLLEQKKIKPPFKPRIKTKRDVNNFDQDFTREEPVLTLVDEAIVKQINQEEFKGFSYFGEDLMP
glycan array binding signal (z-score) (Fuc(a1-2)Gal6S(b1-4)Glc): -0.311 | glycan array binding signal (z-score) [1]: 3.89 | glycan array binding signal (z-score) [2]: 1.09 | glycan array binding signal (z-score) (Fuc(a1-2)[Gal(a1-3)]Gal): -0.206 | glycan array binding signal (z-score) [3]: -0.057 | glycan array binding signal (z-score) [4]: -0.168 | glycan array binding signal (z-score) [5]: -0.251 | glycan array binding signal (z-score) [6]: -0.434 | glycan array binding signal (z-score) [7]: 0.498 | glycan array binding signal (z-score) [8]: 0.142 | glycan array binding signal (z-score) [9]: -0.369 | glycan array binding signal (z-score) [10]: -0.355 | glycan array binding signal (z-score) [11]: -0.34 | glycan array binding signal (z-score) [12]: -0.348 | glycan array binding signal (z-score) [13]: 4.32 | glycan array binding signal (z-score) [14]: -0.256 | glycan array binding signal (z-score) [15]: -0.304 | glycan array binding signal (z-score) [16]: -0.21 | glycan array binding signal (z-score) [17]: -0.321 | glycan array binding signal (z-score) [18]: -0.395 | glycan array binding signal (z-score) [19]: -0.368 | glycan array binding signal (z-score) [20]: -0.107
